# Measured values taken from the supplement of paper PMC8728848.
# The list shows a part of the results.
# Key:
# Assay in all cases: glycan array binding signal (z-score within array); higher = stronger binding
# Conditions in all cases: glycan notation: IUPAC condensed, linker removed
# [1] = biological target: Fuc(a1-2)Gal6S(b1-3)GlcNAc
# In short: (§1)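 The binding signal is a Z-score computed within each array. Data were drawn from 3228 arrays in the Consortium for Functional Glycomics database, restricted to those with a known protein sequence. Scores were averaged over arrays of the same protein sequence at different concentrations or buffers, and over linkers, and negative values can be taken as non-binding.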
# [2] = biological target: Fuc(a1-2)Gal6S(b1-3)GlcNAc6S
# In short: as §1
# Fuc(a1-2)Gal6S(b1-4)Glc = biological target: Fuc(a1-2)Gal6S(b1-4)Glc
# In short: as §1
# [3] = biological target: Fuc(a1-2)Gal6S(b1-4)Glc6S
# In short: as §1
# Fuc(a1-2)[Gal(a1-3)]Gal = biological target: Fuc(a1-2)[Gal(a1-3)]Gal
# In short: as §1
# [4] = biological target: Fuc(a1-2)[Gal(a1-3)]Gal(b1-3)GalNAc
# In short: as §1
# [5] = biological target: Fuc(a1-2)[Gal(a1-3)]Gal(b1-3)GalNAc(b1-3)Gal(a1-4)Gal(b1-4)Glc
# In short: as §1
# [6] = biological target: Fuc(a1-2)[Gal(a1-3)]Gal(b1-3)GlcNAc
# In short: as §1
# [7] = biological target: Fuc(a1-2)[Gal(a1-3)]Gal(b1-3)GlcNAc(b1-2)Man(a1-3)[Fuc(a1-2)[Gal(a1-3)]Gal(b1-3)GlcNAc(b1-2)Man(a1-6)]Man(b1-4)GlcNAc(b1-4)GlcNAc
# In short: as §1
# [8] = biological target: Fuc(a1-2)[Gal(a1-3)]Gal(b1-3)GlcNAc(b1-2)Man(a1-3)[Fuc(a1-2)[Gal(a1-3)]Gal(b1-3)GlcNAc(b1-2)Man(a1-6)]Man(b1-4)GlcNAc(b1-4)[Fuc(a1-6)]GlcNAc
# In short: as §1
# [9] = biological target: Fuc(a1-2)[Gal(a1-3)]Gal(b1-3)GlcNAc(b1-3)GalNAc
# In short: as §1
# [10] = biological target: Fuc(a1-2)[Gal(a1-3)]Gal(b1-3)GlcNAc(b1-6)GalNAc
# In short: as §1
# [11] = biological target: Fuc(a1-2)[Gal(a1-3)]Gal(b1-4)Glc
# In short: as §1
# [12] = biological target: Fuc(a1-2)[Gal(a1-3)]Gal(b1-4)GlcNAc
# In short: as §1
# [13] = biological target: Fuc(a1-2)[Gal(a1-3)]Gal(b1-4)GlcNAc(b1-2)Man
# In short: as §1
# [14] = biological target: Fuc(a1-2)[Gal(a1-3)]Gal(b1-4)GlcNAc(b1-2)Man(a1-3)[Fuc(a1-2)[Gal(a1-3)]Gal(b1-4)GlcNAc(b1-2)Man(a1-6)]Man(b1-4)GlcNAc(b1-4)GlcNAc
# In short: as §1
# [15] = biological target: Fuc(a1-2)[Gal(a1-3)]Gal(b1-4)GlcNAc(b1-2)Man(a1-3)[Fuc(a1-2)[Gal(a1-3)]Gal(b1-4)GlcNAc(b1-2)Man(a1-6)]Man(b1-4)GlcNAc(b1-4)[Fuc(a1-6)]GlcNAc
# In short: as §1
# [16] = biological target: Fuc(a1-2)[Gal(a1-3)]Gal(b1-4)GlcNAc(b1-3)GalNAc
# In short: as §1
# [17] = biological target: Fuc(a1-2)[Gal(a1-3)]Gal(b1-4)GlcNAc(b1-3)[Fuc(a1-2)[Gal(a1-3)]Gal(b1-4)GlcNAc(b1-6)]GalNAc
# In short: as §1
# [18] = biological target: Fuc(a1-2)[Gal(a1-3)]Gal(b1-4)GlcNAc(b1-6)GalNAc
# In short: as §1
# [19] = biological target: Fuc(a1-2)[Gal(a1-3)]Gal(b1-4)[Fuc(a1-3)]Glc
# In short: as §1
# [20] = biological target: Fuc(a1-2)[Gal(a1-3)]Gal(b1-4)[Fuc(a1-3)]GlcNAc
# In short: as §1
# [21] = biological target: Fuc(a1-2)[Gal(a1-3)]Gal(b1-4)[Fuc(a1-3)]GlcNAc(b1-3)GalNAc
# In short: as §1
# [22] = biological target: Fuc(a1-2)[Gal(a1-4)]Gal(b1-4)GlcNAc
# In short: as §1
# [23] = biological target: Fuc(a1-2)[GalNAc(a1-3)]Gal
# In short: as §1
# [24] = biological target: Fuc(a1-2)[GalNAc(a1-3)]Gal(b1-3)GalNAc(a1-3)[Fuc(a1-2)]Gal(b1-4)GlcNAc
# In short: as §1
# [25] = biological target: Fuc(a1-2)[GalNAc(a1-3)]Gal(b1-3)GalNAc(b1-3)Gal(a1-4)Gal(b1-4)Glc
# In short: as §1
# [26] = biological target: Fuc(a1-2)[GalNAc(a1-3)]Gal(b1-3)GlcNAc
# In short: as §1
# [27] = biological target: Fuc(a1-2)[GalNAc(a1-3)]Gal(b1-3)GlcNAc(b1-2)Man(a1-3)[Fuc(a1-2)[GalNAc(a1-3)]Gal(b1-3)GlcNAc(b1-2)Man(a1-6)]Man(b1-4)GlcNAc(b1-4)GlcNAc
# In short: as §1
# [28] = biological target: Fuc(a1-2)[GalNAc(a1-3)]Gal(b1-3)GlcNAc(b1-2)Man(a1-3)[Fuc(a1-2)[GalNAc(a1-3)]Gal(b1-3)GlcNAc(b1-2)Man(a1-6)]Man(b1-4)GlcNAc(b1-4)[Fuc(a1-6)]GlcNAc
# In short: as §1
# [29] = biological target: Fuc(a1-2)[GalNAc(a1-3)]Gal(b1-3)GlcNAc(b1-3)GalNAc
# In short: as §1
# [30] = biological target: Fuc(a1-2)[GalNAc(a1-3)]Gal(b1-3)GlcNAc(b1-6)GalNAc
# In short: as §1
# [31] = biological target: Fuc(a1-2)[GalNAc(a1-3)]Gal(b1-4)Glc
# In short: as §1
# [32] = biological target: Fuc(a1-2)[GalNAc(a1-3)]Gal(b1-4)GlcNAc
# In short: as §1
# [33] = biological target: Fuc(a1-2)[GalNAc(a1-3)]Gal(b1-4)GlcNAc(b1-2)Man
# In short: as §1
# [34] = biological target: Fuc(a1-2)[GalNAc(a1-3)]Gal(b1-4)GlcNAc(b1-2)Man(a1-3)[Fuc(a1-2)[GalNAc(a1-3)]Gal(b1-4)GlcNAc(b1-2)Man(a1-6)]Man(b1-4)GlcNAc(b1-4)GlcNAc
# In short: as §1
# [35] = biological target: Fuc(a1-2)[GalNAc(a1-3)]Gal(b1-4)GlcNAc(b1-2)Man(a1-3)[Fuc(a1-2)[GalNAc(a1-3)]Gal(b1-4)GlcNAc(b1-2)Man(a1-6)]Man(b1-4)GlcNAc(b1-4)[Fuc(a1-6)]GlcNAc
# In short: as §1
# [36] = biological target: Fuc(a1-2)[GalNAc(a1-3)]Gal(b1-4)GlcNAc(b1-3)Gal(b1-4)GlcNAc
# In short: as §1
# [37] = biological target: Fuc(a1-2)[GalNAc(a1-3)]Gal(b1-4)GlcNAc(b1-3)Gal(b1-4)GlcNAc(b1-3)Gal(b1-4)GlcNAc
# In short: as §1
# [38] = biological target: Fuc(a1-2)[GalNAc(a1-3)]Gal(b1-4)GlcNAc(b1-3)GalNAc
# In short: as §1
# [39] = biological target: Fuc(a1-2)[GalNAc(a1-3)]Gal(b1-4)GlcNAc(b1-3)[Fuc(a1-2)[GalNAc(a1-3)]Gal(b1-4)GlcNAc(b1-6)]GalNAc
# In short: as §1
# [40] = biological target: Fuc(a1-2)[GalNAc(a1-3)]Gal(b1-4)GlcNAc(b1-6)GalNAc
# In short: as §1
# [41] = biological target: Fuc(a1-2)[GalNAc(a1-3)]Gal(b1-4)[Fuc(a1-3)]GlcNAc
# In short: as §1
# [42] = biological target: Fuc(a1-2)[GalNAc(a1-3)]Gal(b1-4)[Fuc(a1-3)]GlcNAc(b1-3)GalNAc
# In short: as §1
# [43] = biological target: Fuc(a1-2)[GalNAc(a1-4)]Gal(b1-4)GlcNAc
# In short: as §1
binder,measurement,setting,value
DC-ASGPR S+GEE (Homo sapiens) (protein) MTRTYENFQYLENKVKVQGFKNGPLPLQSLLQRLRSGPCHLLLSLGLGLLLLVIICVVGFQNSKFQRDLVTLRTDFSNFTSNTVAEIQALTSQGSSLEETIASLKAEVEGFKQERQAVHSEMLLRVQQLVQDLKKLTCQVATINNNGEEASTEGTCCPVNWVEHQDSCYWFSHSGMSWAEAEKYCQLKNAHLVVINSREEQNFVQKYLGSAYTWMGLSDPEGAWKWVDGTDYATGFQNWKPGQPDDWQGHGLGGGEDCAHFHPDGRWNDDVCQRPYHWVCEAGLGQTSQESH,glycan array binding signal (z-score),[1],-0.326
same,glycan array binding signal (z-score),[2],0.226
same,glycan array binding signal (z-score),Fuc(a1-2)Gal6S(b1-4)Glc,-0.337
same,glycan array binding signal (z-score),[3],0.235
same,glycan array binding signal (z-score),Fuc(a1-2)[Gal(a1-3)]Gal,-0.286
same,glycan array binding signal (z-score),[4],-0.301
same,glycan array binding signal (z-score),[5],-0.348
same,glycan array binding signal (z-score),[6],-0.309
same,glycan array binding signal (z-score),[7],-0.338
same,glycan array binding signal (z-score),[8],-0.128
same,glycan array binding signal (z-score),[9],-0.31
same,glycan array binding signal (z-score),[10],3.42
same,glycan array binding signal (z-score),[11],-0.391
same,glycan array binding signal (z-score),[12],0.03
same,glycan array binding signal (z-score),[13],-0.264
same,glycan array binding signal (z-score),[14],-0.323
same,glycan array binding signal (z-score),[15],-0.192
same,glycan array binding signal (z-score),[16],-0.318
same,glycan array binding signal (z-score),[17],-0.256
same,glycan array binding signal (z-score),[18],-0.314
same,glycan array binding signal (z-score),[19],-0.286
same,glycan array binding signal (z-score),[20],-0.511
same,glycan array binding signal (z-score),[21],-0.286
same,glycan array binding signal (z-score),[22],-0.38
same,glycan array binding signal (z-score),[23],0.972
same,glycan array binding signal (z-score),[24],0.763
same,glycan array binding signal (z-score),[25],0.842
same,glycan array binding signal (z-score),[26],0.865
same,glycan array binding signal (z-score),[27],0.728
same,glycan array binding signal (z-score),[28],0.455
same,glycan array binding signal (z-score),[29],0.296
same,glycan array binding signal (z-score),[30],3.69
same,glycan array binding signal (z-score),[31],0.468
same,glycan array binding signal (z-score),[32],0.712
same,glycan array binding signal (z-score),[33],0.714
same,glycan array binding signal (z-score),[34],0.788
same,glycan array binding signal (z-score),[35],0.233
same,glycan array binding signal (z-score),[36],0.807
same,glycan array binding signal (z-score),[37],0.679
same,glycan array binding signal (z-score),[38],0.456
same,glycan array binding signal (z-score),[39],0.739
same,glycan array binding signal (z-score),[40],3.35
same,glycan array binding signal (z-score),[41],0.505
same,glycan array binding signal (z-score),[42],-0.099
same,glycan array binding signal (z-score),[43],3.75
